# In the supplement of paper PMC8728848:
# The other results are listed elsewhere or left out.
# What was measured:
# Assay in all cases: glycan array binding signal (z-score within array); higher = stronger binding
# Settings in all cases: glycan notation: IUPAC condensed, linker removed
# [1] = target: Gal(b1-4)GlcNAc(b1-2)[Gal(b1-4)GlcNAc(b1-6)]Man(a1-6)[Gal(b1-4)GlcNAc(b1-2)Man(a1-3)]Man(b1-4)GlcNAc(b1-4)[Fuc(a1-6)]GlcNAc
# Summary of the method: (§1)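 The binding signal is a Z-score computed within each array. Data were drawn from 3228 arrays in the Consortium for Functional Glycomics database, restricted to those with a known protein sequence. Scores were averaged over arrays of the same protein sequence at different concentrations or buffers, and over linkers, and negative values can be taken as non-binding.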
# [2] = target: Gal(b1-4)GlcNAc(b1-2)[Gal(b1-4)GlcNAc(b1-6)]Man(a1-6)[GlcNAc(b1-4)][Gal(b1-4)GlcNAc(b1-2)Man(a1-3)]Man(b1-4)GlcNAc(b1-4)GlcNAc
# Summary of the method: as §1
# [3] = target: Gal(b1-4)GlcNAc(b1-2)[Gal(b1-4)GlcNAc(b1-6)]Man(a1-6)[GlcNAc(b1-4)][Gal(b1-4)GlcNAc(b1-2)[Gal(b1-4)GlcNAc(b1-4)]Man(a1-3)]Man(b1-4)GlcNAc(b1-4)[Fuc(a1-6)]GlcNAc
# Summary of the method: as §1
# [4] = target: Gal(b1-4)GlcNAc(b1-3)Gal(b1-3)GalNAc
# Summary of the method: as §1
# [5] = target: Gal(b1-4)GlcNAc(b1-3)Gal(b1-3)GlcNAc
# Summary of the method: as §1
# [6] = target: Gal(b1-4)GlcNAc(b1-3)Gal(b1-4)Glc
# Summary of the method: as §1
# [7] = target: Gal(b1-4)GlcNAc(b1-3)Gal(b1-4)GlcNAc
# Summary of the method: as §1
# [8] = target: Gal(b1-4)GlcNAc(b1-3)Gal(b1-4)GlcNAc(b1-2)Man(a1-3)[Gal(b1-4)GlcNAc(b1-3)Gal(b1-4)GlcNAc(b1-2)Man(a1-6)]Man(b1-4)GlcNAc(b1-4)GlcNAc
# Summary of the method: as §1
# [9] = target: Gal(b1-4)GlcNAc(b1-3)Gal(b1-4)GlcNAc(b1-2)Man(a1-3)[Gal(b1-4)GlcNAc(b1-3)Gal(b1-4)GlcNAc(b1-2)Man(a1-6)]Man(b1-4)GlcNAc(b1-4)[Fuc(a1-6)]GlcNAc
# Summary of the method: as §1
# [10] = target: Gal(b1-4)GlcNAc(b1-3)Gal(b1-4)GlcNAc(b1-2)[Gal(b1-4)GlcNAc(b1-3)Gal(b1-4)GlcNAc(b1-6)]Man(a1-6)[Gal(b1-4)GlcNAc(b1-3)Gal(b1-4)GlcNAc(b1-2)Man(a1-3)]Man(b1-4)GlcNAc(b1-4)GlcNAc
# Summary of the method: as §1
# [11] = target: Gal(b1-4)GlcNAc(b1-3)Gal(b1-4)GlcNAc(b1-2)[Gal(b1-4)GlcNAc(b1-3)Gal(b1-4)GlcNAc(b1-6)]Man(a1-6)[Gal(b1-4)GlcNAc(b1-3)Gal(b1-4)GlcNAc(b1-2)Man(a1-3)]Man(b1-4)GlcNAc(b1-4)[Fuc(a1-6)]GlcNAc
# Summary of the method: as §1
# [12] = target: Gal(b1-4)GlcNAc(b1-3)Gal(b1-4)GlcNAc(b1-3)Gal(b1-4)GlcNAc
# Summary of the method: as §1
# [13] = target: Gal(b1-4)GlcNAc(b1-3)Gal(b1-4)GlcNAc(b1-3)Gal(b1-4)GlcNAc(b1-2)Man(a1-3)[Gal(b1-4)GlcNAc(b1-3)Gal(b1-4)GlcNAc(b1-3)Gal(b1-4)GlcNAc(b1-2)Man(a1-6)]Man(b1-4)GlcNAc(b1-4)GlcNAc
# Summary of the method: as §1
# [14] = target: Gal(b1-4)GlcNAc(b1-3)Gal(b1-4)GlcNAc(b1-3)Gal(b1-4)GlcNAc(b1-2)Man(a1-3)[Gal(b1-4)GlcNAc(b1-3)Gal(b1-4)GlcNAc(b1-3)Gal(b1-4)GlcNAc(b1-2)Man(a1-6)]Man(b1-4)GlcNAc(b1-4)[Fuc(a1-6)]GlcNAc
# Summary of the method: as §1
# [15] = target: Gal(b1-4)GlcNAc(b1-3)Gal(b1-4)GlcNAc(b1-3)Gal(b1-4)GlcNAc(b1-2)[Gal(b1-4)GlcNAc(b1-3)Gal(b1-4)GlcNAc(b1-3)Gal(b1-4)GlcNAc(b1-6)]Man(a1-6)[Gal(b1-4)GlcNAc(b1-3)Gal(b1-4)GlcNAc(b1-3)Gal(b1-4)GlcNAc(b1-2)Man(a1-3)]Man(b1-4)GlcNAc(b1-4)[Fuc(a1-6)]GlcNAc
# Summary of the method: as §1
# [16] = target: Gal(b1-4)GlcNAc(b1-3)Gal(b1-4)GlcNAc(b1-3)Gal(b1-4)GlcNAc(b1-3)Gal(b1-4)GlcNAc(b1-2)Man(a1-3)[Gal(b1-4)GlcNAc(b1-3)Gal(b1-4)GlcNAc(b1-3)Gal(b1-4)GlcNAc(b1-3)Gal(b1-4)GlcNAc(b1-2)Man(a1-6)]Man(b1-4)GlcNAc(b1-4)GlcNAc
# Summary of the method: as §1
# [17] = target: Gal(b1-4)GlcNAc(b1-3)Gal(b1-4)GlcNAc(b1-3)Gal(b1-4)GlcNAc(b1-3)Gal(b1-4)GlcNAc(b1-2)Man(a1-3)[Gal(b1-4)GlcNAc(b1-3)Gal(b1-4)GlcNAc(b1-3)Gal(b1-4)GlcNAc(b1-3)Gal(b1-4)GlcNAc(b1-2)Man(a1-6)]Man(b1-4)GlcNAc(b1-4)[Fuc(a1-6)]GlcNAc
# Summary of the method: as §1
# [18] = target: Gal(b1-4)GlcNAc(b1-3)Gal(b1-4)GlcNAc(b1-3)Gal(b1-4)GlcNAc(b1-3)Gal(b1-4)GlcNAc(b1-2)[Gal(b1-4)GlcNAc(b1-3)Gal(b1-4)GlcNAc(b1-3)Gal(b1-4)GlcNAc(b1-3)Gal(b1-4)GlcNAc(b1-6)]Man(a1-6)[Gal(b1-4)GlcNAc(b1-3)Gal(b1-4)GlcNAc(b1-3)Gal(b1-4)GlcNAc(b1-3)Gal(b1-4)GlcNAc(b1-2)Man(a1-3)]Man(b1-4)GlcNAc(b1-4)[Fuc(a1-6)]GlcNAc
# Summary of the method: as §1
# [19] = target: Gal(b1-4)GlcNAc(b1-3)Gal(b1-4)GlcNAc(b1-3)Gal(b1-4)GlcNAc(b1-3)Gal(b1-4)GlcNAc(b1-3)Gal(b1-4)GlcNAc(b1-2)Man(a1-3)[Gal(b1-4)GlcNAc(b1-3)Gal(b1-4)GlcNAc(b1-3)Gal(b1-4)GlcNAc(b1-3)Gal(b1-4)GlcNAc(b1-3)Gal(b1-4)GlcNAc(b1-2)Man(a1-6)]Man(b1-4)GlcNAc(b1-4)GlcNAc
# Summary of the method: as §1
# [20] = target: Gal(b1-4)GlcNAc(b1-3)Gal(b1-4)GlcNAc(b1-3)Gal(b1-4)GlcNAc(b1-3)Gal(b1-4)GlcNAc(b1-3)Gal(b1-4)GlcNAc(b1-2)Man(a1-3)[Gal(b1-4)GlcNAc(b1-3)Gal(b1-4)GlcNAc(b1-3)Gal(b1-4)GlcNAc(b1-3)Gal(b1-4)GlcNAc(b1-3)Gal(b1-4)GlcNAc(b1-2)Man(a1-6)]Man(b1-4)GlcNAc(b1-4)[Fuc(a1-6)]GlcNAc
# Summary of the method: as §1
# [21] = target: Gal(b1-4)GlcNAc(b1-3)Gal(b1-4)GlcNAc(b1-3)Gal(b1-4)GlcNAc(b1-3)Gal(b1-4)GlcNAc(b1-3)Gal(b1-4)GlcNAc(b1-2)[Gal(b1-4)GlcNAc(b1-3)Gal(b1-4)GlcNAc(b1-3)Gal(b1-4)GlcNAc(b1-3)Gal(b1-4)GlcNAc(b1-3)Gal(b1-4)GlcNAc(b1-6)]Man(a1-6)[Gal(b1-4)GlcNAc(b1-3)Gal(b1-4)GlcNAc(b1-3)Gal(b1-4)GlcNAc(b1-3)Gal(b1-4)GlcNAc(b1-3)Gal(b1-4)GlcNAc(b1-2)Man(a1-3)]Man(b1-4)GlcNAc(b1-4)[Fuc(a1-6)]GlcNAc
# Summary of the method: as §1
# [22] = target: Gal(b1-4)GlcNAc(b1-3)Gal(b1-4)GlcNAc(b1-3)Gal(b1-4)GlcNAc(b1-3)Gal(b1-4)GlcNAc(b1-3)Gal(b1-4)GlcNAc(b1-3)Gal(b1-4)GlcNAc(b1-2)Man(a1-3)[Gal(b1-4)GlcNAc(b1-3)Gal(b1-4)GlcNAc(b1-3)Gal(b1-4)GlcNAc(b1-3)Gal(b1-4)GlcNAc(b1-3)Gal(b1-4)GlcNAc(b1-3)Gal(b1-4)GlcNAc(b1-2)Man(a1-6)]Man(b1-4)GlcNAc(b1-4)GlcNAc
# Summary of the method: as §1
# [23] = target: Gal(b1-4)GlcNAc(b1-3)Gal(b1-4)GlcNAc(b1-3)GalNAc
# Summary of the method: as §1
binder,measurement,setting,value
BTL (Bryothamnion triquetrum) (protein) ADPICGSSGYSCTTPAILTPKSPGSFPSGYSKVIVTGVGGSYSVYIHRPDGFKVYKASEGGCASFGSYSGGGNSEVGKYGSGGTVVAVACK,glycan array binding signal (z-score),[1],6.49
same,glycan array binding signal (z-score),[2],-0.19
same,glycan array binding signal (z-score),[3],0.044
same,glycan array binding signal (z-score),[4],-0.107
same,glycan array binding signal (z-score),[5],-0.213
same,glycan array binding signal (z-score),[6],-0.253
same,glycan array binding signal (z-score),[7],-0.27
same,glycan array binding signal (z-score),[8],-0.119
same,glycan array binding signal (z-score),[9],6.38
same,glycan array binding signal (z-score),[10],-0.126
same,glycan array binding signal (z-score),[11],3.58
same,glycan array binding signal (z-score),[12],-0.216
same,glycan array binding signal (z-score),[13],-0.258
same,glycan array binding signal (z-score),[14],5.89
same,glycan array binding signal (z-score),[15],2.73
same,glycan array binding signal (z-score),[16],0.005
same,glycan array binding signal (z-score),[17],4.48
same,glycan array binding signal (z-score),[18],2.3
same,glycan array binding signal (z-score),[19],-0.13
same,glycan array binding signal (z-score),[20],4.45
same,glycan array binding signal (z-score),[21],2.65
same,glycan array binding signal (z-score),[22],-0.154
same,glycan array binding signal (z-score),[23],-0.211
